The target of assay [1] is T1, Factor IXa (activated factor IX), plasma protein (UniProt P00740 47-191; P00740 fragment). The assay is described as follows: enzyme inhibition kinetics.
In assay [2] the target is T1, Factor IXa (activated factor IX), …. The assay is described as follows: enzyme inhibition kinetics. The source holds these as a separate data set.

Results on 1 molecule are retold here after PMC2844450 (Biochemistry, 2010).

B1: AT-R393Y (antithrombin with the P1 Arg-393 replaced by the P1 Tyr of ZPI) (natural protein)
chain: not shown
As to B1, the “k2 with pentasaccharide H5” value in assay [1] is 40 M⁻¹ s⁻¹. In assay [2], the k2 with heparin came to 3000 M⁻¹ s⁻¹.
